Experiment [1] has as its system high cardiovascular risk patients with hypercholesterolemia. The experiment can be described thus: ODYSSEY COMBO I: lipid efficacy of alirocumab vs placebo, add-on to maximally tolerated statin, 52 weeks. The class given is in vivo, human. To be noted: Week 24. The text has this: (§1) Each of the COMBO studies was randomized, double-blinded, and placebo-controlled.
(§2) The primary efficacy endpoint for each study was the difference between treatment arms in the percent change in LDL-C from baseline to Week 24.
(§3) Apo, apolipoprotein; HDL-C, high-density lipoprotein cholesterol; ITT, intent-to-treat; LDL-C, low-density lipoprotein cholesterol; Lp(a), lipoprotein (a); TG, triglycerides.
COMBO I was a Phase 3, randomized, double-blind, placebo-controlled, parallel-group, multicenter, 52-week study.
After randomization, patients entered a double-blind treatment period of 52 weeks. […] Patients randomized to placebo received a 1 ml SC placebo injection from an identical auto-injector.
To maintain blinding, the patient and investigator were not informed of the Week 8 LDL-C levels (or any lipid values after randomization); continuation or up-titration of dose occurred in an automated and blinded manner.
Primary analyses of efficacy endpoints were conducted using an ITT approach (based on the ITT population defined above), including all lipid data, regardless of whether the patient was continuing therapy or not. […]
With regards to the primary efficacy analysis (ITT approach), the percent change in calculated LDL-C from baseline to Week 24 was analyzed using a mixed-effect model with repeated measures (MMRM) approach. […]

Experiment [2] shares this test system. As to the kind of experiment: ODYSSEY COMBO II: lipid efficacy of alirocumab vs ezetimibe, add-on to maximally tolerated statin. To be noted: Week 24. The class given is in vivo, human.
From the text: as §1, §2, §3
COMBO II was a Phase 3, randomized, double-blind, active-controlled, parallel-group, multinational 104-week study. The study enrolled high-risk patients with uncontrolled hypercholesterolemia on stable, maximally tolerated daily statin therapy. Unlike COMBO I, with a placebo arm, COMBO II incorporated an active-treatment arm (ezetimibe) with double-dummy design (FIG. 1B) and patients were not allowed to receive any other lipid lowering therapies besides statin and their randomized treatment.
After randomization, patients entered a double-blind, double-dummy treatment period of 104 weeks. […]
With regards to the primary efficacy analysis (ITT approach), the percent change in calculated LDL-C from baseline to Week 24 was analyzed using a mixed-effect model with repeated measures (MMRM) approach.

With “Alirocumab: human anti-PCSK9 antibody; HCVR SEQ ID NO:1, LCVR SEQ ID NO:6; CDRs SEQ ID NOs 2/3/4/7/8/10”, the “Proportion of patients achieving LDL-C <70 mg/dL (<1.81 mmol/L)” value in experiment [1] (ITT) turned out to be 75.0%; in experiment [1] (On-treatment), 77.5%. For the same compound, in experiment [2], the “Proportion of patients reaching calculated LDL-C <70 mg/dL (1.81 mmol/L), combined estimate” value is recorded as 77%.
For the compound `O=C1[C@H](CC[C@H](O)c2ccc(F)cc2)[C@@H](c2ccc(O)cc2)N1c1ccc(F)cc1` [Ezetimibe, ezetimibe, reference compound], the “Proportion of patients reaching calculated LDL-C <70 mg/dL (1.81 mmol/L), combined estimate” value in experiment [2] is recorded as 45.6%.

The values are drawn from patent publication US20160137746A1, “METHODS FOR TREATING HIGH CARDIOVASCULAR RISK PATIENTS WITH HYPERCHOLESTEROLEMIA” (Sanofi Biotechnology, priority 2014, published 2016).
